# Data published in PMC4336329 (PLoS ONE, 2015).
# The whole screen tested about 310,000 compounds, of which about 2,200 (0.71%) showed an effect of 50% or more. Effects have a minus sign here. Some of the results follow.
# Target: human ether-à-go-go-related gene (hERG) potassium channel (human, UniProt Q12809)
# Assay: primary screen, population patch clamp on CHO cells stably expressing hERG
# Chain of human ether-à-go-go-related gene (hERG) potassium channel (Q12809 whole entry, looked up): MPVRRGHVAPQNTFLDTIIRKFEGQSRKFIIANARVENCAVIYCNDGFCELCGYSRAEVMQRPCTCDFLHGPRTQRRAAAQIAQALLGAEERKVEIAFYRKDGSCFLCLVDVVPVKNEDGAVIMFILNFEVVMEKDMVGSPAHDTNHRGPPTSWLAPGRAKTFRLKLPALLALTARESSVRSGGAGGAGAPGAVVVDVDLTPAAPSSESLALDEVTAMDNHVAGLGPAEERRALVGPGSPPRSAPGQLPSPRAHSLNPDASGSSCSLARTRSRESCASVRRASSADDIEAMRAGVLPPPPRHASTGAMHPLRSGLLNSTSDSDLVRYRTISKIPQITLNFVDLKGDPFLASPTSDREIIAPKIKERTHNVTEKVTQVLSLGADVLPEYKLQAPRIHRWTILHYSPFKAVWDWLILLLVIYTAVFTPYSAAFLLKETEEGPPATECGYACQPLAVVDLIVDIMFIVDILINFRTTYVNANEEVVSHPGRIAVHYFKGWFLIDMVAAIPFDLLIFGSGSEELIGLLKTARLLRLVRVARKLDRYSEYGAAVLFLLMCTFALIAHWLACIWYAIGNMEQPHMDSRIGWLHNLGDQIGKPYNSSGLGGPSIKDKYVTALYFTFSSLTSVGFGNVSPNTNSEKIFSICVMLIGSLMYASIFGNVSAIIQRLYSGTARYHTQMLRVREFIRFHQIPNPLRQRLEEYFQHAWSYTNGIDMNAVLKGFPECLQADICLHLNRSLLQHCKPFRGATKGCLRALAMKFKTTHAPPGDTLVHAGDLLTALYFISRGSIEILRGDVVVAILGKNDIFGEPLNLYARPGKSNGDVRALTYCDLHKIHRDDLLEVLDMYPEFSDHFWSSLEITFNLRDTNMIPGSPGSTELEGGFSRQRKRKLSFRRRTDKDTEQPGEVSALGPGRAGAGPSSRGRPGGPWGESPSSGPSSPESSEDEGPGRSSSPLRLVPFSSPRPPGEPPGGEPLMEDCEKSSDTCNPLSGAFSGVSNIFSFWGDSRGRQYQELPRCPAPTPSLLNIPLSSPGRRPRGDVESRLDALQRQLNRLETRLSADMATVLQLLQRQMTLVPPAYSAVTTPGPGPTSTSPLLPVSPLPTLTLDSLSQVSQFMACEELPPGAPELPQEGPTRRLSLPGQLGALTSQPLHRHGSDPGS
row,Compound,"hERG current change (%, negative = inhibition) at 1uM [%]"
1,CC(C)c1ccccc1NC(=O)COc1ccc(C(=O)NCCc2ccccc2)cc1,1.31
2,Cc1cc(C)c(C#N)c(SCC(=O)c2cc(C)n(CCc3ccccc3)c2C)n1,4.88
3,O=C(Nc1nc2c(F)cc(F)cc2s1)c1ccc([N+](=O)[O-])o1,17
4,COc1ccc(Cl)cc1N1Cc2ccccc2C1,14.2
5,CCOC(=O)C1=C(COC(=O)/C=C/c2cccc([N+](=O)[O-])c2)NC(=O)NC1C (centres unmarked),10.1
6,CCOC(=O)Nc1ccc2c(COC(=O)CN(C)S(=O)(=O)c3ccc(C)cc3)cc(=O)oc2c1,-1.15
7,CCCCn1nnnc1NCc1ccc(N2CCCC2)cc1,-12.4
8,COc1cccc(-c2ccc3ncnc(NCc4cccs4)c3c2)c1,13.1
9,CCOc1ccccc1NC(=O)c1ccc2c(=O)n3c(nc2c1)CCCCC3,1.18
10,CC(=O)c1cc2c(cc1NC(=O)Cc1ccsc1)OCO2,12
11,CC1CC(C)CN(S(=O)(=O)c2ccc(NC(=O)[C@@H]3CCCN3C(=O)c3cccs3)cc2)C1 (some centres unmarked),10.3
12,COc1cccc(CNC(=O)CCC2CCCN(C(=O)c3cc(C4CC4)[nH]n3)C2)c1 (centres unmarked),10.6
13,O=C(COc1ccccc1)Nc1nc(-c2cccs2)cs1,5
14,O=C(NNC(=O)c1ccccc1-c1ccccc1C(=O)O)c1ccccc1,15.6
15,CC(C)C(=O)Nc1cccc(C(=O)Nc2nccs2)c1,18.3
16,CCCOc1ccc(C2CC(=O)Nc3cc(OC)c(OC)cc32)cc1 (centres unmarked),12
17,CN1CCN(NC(=O)NC2CCCCC2)CC1,10.6
18,COc1ccc(CNC(=S)Nc2ccc(Br)cc2)cc1,10.9
19,O=C1CSC(c2cccc(Cl)c2Cl)N1c1ccccn1 (centres unmarked),7.63

row,Compound,"hERG current change (%, negative = inhibition) at 1uM [%]"
1,Nc1ccc(Nc2ccccc2N)cc1,19.6
2,CC(=O)Nc1ccc(SCC(=O)OCC(=O)NC(=O)NC2CCCC2)cc1,7.63
3,CC1(C)NC(=O)N(CC(O)COc2ccc(-c3ccccc3)cc2)C1=O (centres unmarked),7.39
4,O=C(CN1CCOCC1)Nc1nc2ccc(Br)cc2s1,-24.5
5,C/C(=N\NC(=O)c1ccc(Cn2cc([N+](=O)[O-])cn2)o1)c1cccc(NC(=O)C(C)C)c1,13.6
6,O=C1c2cccc3cccc(c23)C(=O)N1c1ccc2ncccc2c1,15.4
7,CC1(C)C[C@H]2C=C(C=O)[C@]3(C=O)C[C@]3(C)[C@H]2C1,6.2
8,O=C(CN1C(=O)c2cccc3cccc1c23)NCc1cccnc1,10.5
9,CCOCC(=O)Nc1nc(-c2ccccc2)c(CC)s1,-3.77
10,O=C(NCc1cc(C(F)(F)F)ccc1F)C1CCC(=O)N(C2CC2)C1 (centres unmarked),6.6
11,Cc1ccc(-c2n[nH]c(=S)n2/N=C/C=C/c2ccccc2[N+](=O)[O-])cc1,3.5
12,Cc1cc(Cl)ccc1OCC(=O)NNC(=O)C1CSC2(C)CCC(=O)N12 (centres unmarked),2.3
13,CCOc1cc(N2CCOCC2)c(OCC)cc1NC(=O)C1CC(=O)N(c2ccc(C)cc2)C1 (centres unmarked),-0.693
14,CC(C)(C)C(=O)c1sc2nc(-c3cccs3)cc(C(F)(F)F)c2c1N,7.52
15,Cc1ccc(Cl)cc1NC(=O)CN1C(=O)NC2(CCCCCC2)C1=O,0.826
16,Cc1ccc(Cn2ncc3c(N4CCN(c5ccccc5C)CC4)ncnc32)cc1,9.24
17,Cc1ccc(C(=O)Oc2ccc3c(c2)ncn3C)cc1,5.74
18,COc1ccc(C[C@H]2CN3C(=NC[C@@H]3Cc3ccc(O)cc3)N2CCNC(=O)c2ccc(C)c(Br)c2)cc1,-18.4
19,CC1CC(C)CN(C(=O)CCC(=O)Nc2nnc(C3CCCCC3)s2)C1 (centres unmarked),18.6

row,Compound,"hERG current change (%, negative = inhibition) at 1uM [%]"
1,CCSc1ccc([C@@H]2[C@@H]3C(=O)N(C)C(=O)[C@@H]3[C@]3(C(=O)OC)CCCCN23)cc1.O=C(O)C(F)(F)F,11.9
2,CCOC(=O)c1c(-c2ccccc2)csc1NC(=O)/C(C#N)=C/c1ccc(O)c(OC)c1,3.15
3,COc1cc(/C=C2\SC(N)=NC2=O)cc(OC)c1,2.09
4,CCn1c(COc2ccc(C)cc2)nnc1SCC(=O)NCc1ccco1,0.55
5,COc1cccc(C(=O)Cn2c(=O)n(CC3CCCO3)c(=O)c3ccccc32)c1 (centres unmarked),8.58
6,Cl.N=c1sccn1CC(=O)Nc1ccc(SC(F)F)cc1,-29
7,COc1ccc(CNC(=O)c2c(N)n(CCCN3CCOCC3)c3nc4ccccc4nc23)cc1,2.88
8,Cc1ccc(CNC(=O)CN(c2cccc([N+](=O)[O-])c2)S(C)(=O)=O)cc1,7.48
9,O=C(O)c1cc2c(ccc3ccccc32)[nH]1,13
10,COc1ccc(NC(=O)O/N=C/c2ccncc2)cc1,19
11,O=C(Cc1cccs1)Nc1cccc([N+](=O)[O-])c1,-5.24
12,CCOc1ccc2nc(NCCCNS(=O)(=O)c3ccc(C)cc3)c(C#N)cc2c1,4.04
13,CS(=O)(=O)Nc1ccccc1C(=O)c1ccccc1,6.47
14,Cn1c(N)c(C(=O)COC(=O)C2(c3ccc(F)cc3)CCCC2)c(=O)n(C)c1=O,17
15,Cc1ccc(-c2nn(CCC(=O)NN3CCOCC3)c(=O)c3ccccc23)cc1,6.21
16,CCN(C(=O)COC(=O)CNC(=O)c1ccc(F)cc1)C1CCS(=O)(=O)C1 (centres unmarked),9.62
17,CCCOc1ccc(N2C(=O)CC(NCC(=O)OCC)C2=O)cc1 (centres unmarked),12.3
18,CCOc1ccc(S(=O)(=O)N2CCCCC2)cc1NC(=O)CCc1ccc(OC)cc1,12.7
